Here are results for 1 compound from PubChem BioAssay (NCI).

Some structures have more than one record in an assay (separate samples or runs), and their calls can disagree.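 Growth was measured after 48 h exposure to one concentration of compound in 96-well plates. Values under 10 count as active.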 Certain results were filed several times, with different values. The list is limited to them. There may be further records. This drug was run again and again over the years, at the concentration stated with the values; one value stands for one run. Brackets with × give the number of equal values in this list.

The subject of one assay is SK-MEL-5 melanoma. The assay can be described thus: NCI-60 one-dose screen, 48 h (100 = growth as untreated, 0 = no growth, -100 = all killed). As to conditions: 2.5 mM.
The next assay concerns UACC-62 melanoma. The assay is described as above. As to conditions: 2.5 mM.

Regarding `O=c1[nH]cc(F)c(=O)[nH]1`, the growth entry in the assay with SK-MEL-5 melanoma (runs of 1992) is “active: -37, -60.2, -29.8, -56, -65.3, -73.6, -40.9, -60, -14.4, -66.1 (2×), -68.7, -43.4, 7.3, 8.08, 0.995, -70.8, -66.2, 7.8, -51.5 (2×), 5.23, -45.4, -31.4, -89, -66.9, -41.5, -50, 1.2, -26.6, -27.3 (2×), -74.3, -71.2, -80, 9.66, -37.2, -47.7, -27.8, -18.8, -11.4, -15.1, -32.2, -32.5, -56.4, -45.1, -73, -65.6, -40.4, -47.1, -32.3, -3.93, -9.51, -56.2, -53.6, -60.9, -81.3, -52.1, -63.6, -100, -44.8, -49.7, -49.4, -23, -49.3, -62.8, -56.8, -6.51, -14.6, -76.2, -68, -7.56, -81.4, -46.7, -11.8, -45.3, -18, -9.36, 3.08, -59.4, -68.9, -32.6, -54.3, -21.2, -61.6, -40.5, -49.2, -53.3, -75.5, -55.6, -39.1, -57.7, -83.1, 1.78, -85.5, -37.3 (2×), 10, -27.4, -25.8, -51.6, 3.11, 6.26, 1.51, 1.55% and inactive: 19.1, 13.8, 14.1 (2×), 11.9, 28.5, 15.1, 15, 13.4, 11.7, 26.5, 10.9, 17.5, 14.7, 16.2%”; in the assay on SK-MEL-5 melanoma (runs of 1993) it was “active: -63.9, -7.58, -14.3, -65.7, -70.1, -58.2, -11.6, 3.16, -44.6, -16.3, -58.6 (2×), -1.49, -48, -84.8 (2×), -30.2, -12.2, -39 (2×), -17.1, -39.6, -31.5, -24.4, -67.6, -54.4, -0.524, -44.7, -46.1, -74.2, -86.1, -42.3, -54.6, -53.6, -55.2, -47.7, -69.4, -43.3, -58.9, -89, -19, -42.2, -86.2, -72.7, -62.4, -30.5% and inactive: 87.4%”; in the assay on SK-MEL-5 melanoma (runs of 1994) it was “active: -74.3 (2×), -50.2, -50.4, -42.1, -34.4, -59.4, -72.1, -78.4, -54.7, -51.9, -69.7, -61.8, -75.5, -39.7, -38.3, -55.3, -32.8, 0.664, -54.6, -44.5, -11.9, -56, -47.5, -66.9, 0.367, -74, 6.73, -2.37, -22.2, -45.8, -52.3%”; with SK-MEL-5 melanoma (runs of 1995), “inactive: 10.7%, 14.6% and active: -74, -90.7, -71.1, -56.1, -45.7, -50.7, -17.4, -53.7, -25.4, -53.4, -77.9, -81.4, -70.8, -58.3, -25.2, -82.9, -41, -53.5, -50.6, 3.43, -25.6, -24, 4.21, -57.1, -68.8, -65.3, -4.23, -72.6, -79.2, -65.5, -9.1, -74.6, -89.7, -1.65, -38.7, 4.2, -77.8%”; with SK-MEL-5 melanoma (runs of 1996) it was “inactive: 17.6, 62.6, 13, 10.4% and active: 4.85, -83.5, -72, -28, -70.4, -76.7, 1.4, 1.72, -67.8, 7.71, -37, -35.8, -79.8, -87.9, -62.8, -32.4, -49.7, -71.3, -16.4, -17.7, -8.09, -66, -89.4, 2.58, -46.3, 3.38, -17.9, -52.1, -92.9, -64.5, 5.51, 0.304, -33.3, -66.3, -74.3, 0.872, -83.2, -44.4, -60.1, -7.57, -30.6, -44, -15.7, -76.1, -77.3, 7.07, -15.1, 2.34, -15, -42.6, 8.38, -56.9, 1.77%”; in the assay with SK-MEL-5 melanoma (runs of 1997), “active: -39.1, 3.64, 2.8, -3.02, -81.9, -41.9, -42.4, -13.3, 3.06, -52.4, -98.4, -12.6, -61.8, -7.99, -53.1, -24.6, -74.7, -100, -75.8, -15.4, -45.4, -18.5, -37.8, -51, -65.5, -23.1, -8.52, -81.2, -47.1, 4.59% and inactive: 61.9, 13.2, 24.9, 10.8%”. In addition, the growth entry was “active: -86.8, -54.6, -72.7, 6.02, -7.65, -37.1, -29, -31.3 (2×), -29.3, -3.66, 6.14, -27.3, -30.5, -52, 0.223, -56.6, -56.2, -20, -54.8, -50.5, -59.2, -52.4, -34.2% and inactive: 13.9%” in the assay on SK-MEL-5 melanoma (runs of 1998); “inactive: 48.4%, 95% and active: -3.18, 4.08, -78.9, -68.5, -100 (2×), -66.2, -70.3, -62.9, -95.9, -80.7, -74.4, -81.1, -69.5, -87.2, -67.1%” in the assay with SK-MEL-5 melanoma (runs of 1999); “active: -42.1, -51.7, -65.7, -85.8%” in the assay with SK-MEL-5 melanoma (runs of 2000); “active: -17.4, -21.6, -49.4, -65.5, -62.3, 5.08, -35.8, -79.7, 1.73, -90, -23.6, -56, -82.4, -65.3, -26.2, -45.7, -90.8, -96.6% and inactive: 10.2%” with UACC-62 melanoma (runs of 1991); “active: -44.6, -34, -29, -18, -69.3 (2×), -53.1, -80.4, -88.8, -43.3, -45.6, 0.165, 3.38, -9.51, -18.8, -8.28, -40.2 (2×), -67.7, -90.5, -92.5, -11.7, -55.3 (2×), -27.2, -39.4, -59.6, -21.5, -21.4, -28.1, -25.6, -66.1, -38.9, -56.2, -54.5, -73.9, -63.7, -32.9, -82.8, -82, -17.4, -40.6, -17, -9.18, -56.4, -70.5, -22.2, -58.7, -14.3, 0.516, -47.9, -63.2, -30.7, -75.2, -50.3, -34.2, -28.2, -12.2, -11.8, 5.73, -76.2, -69.8 (2×), -59.7, -82.9, -57.4, -83.8, -46.5 (2×), -29.6 (2×), -46.3, -59, -17.7, -31.1, -26.9, -30.2, -72.2, -46.9, -84.4, -69.9, -91.4, -44.1, 7.17, -76, -14.7, -52.6, -60.4, -30.1, -14, -5.16, -61.4, -73.4, -73, -72.4, -13.9, -29.9, -35.8, -50.8, -31.2, -59.3, -58.1, -69, -3.02, -29.5, -24.3, -34.5, -68.3, -19.9, -16.7, -33.3, -30.8, -88.2, -79.6, -20.8, 1.52, -20.1% and inactive: 38.4, 11.1, 89.8, 14.6, 10.6, 65.5, 90.6%” in the assay on UACC-62 melanoma (runs of 1992); “active: -44, -18.1, -35.6, -34.4, -28.3, -7.93, -31.7, -62.7, -87.7, 6.02, -1.66, 3.86, -16, 4.96, -23.4, -7.25, -68.2, -50, -16.5, -4.18, 2.62, -25.6 (2×), -21.5, -61.1, -2.41, -9.84, -47.3, -5.84, -64, -4.6, -47.6, 7.84, -15.1, -58.1, -6.58, -3.95, -58.6, 7.16, 2.61, -13.6% and inactive: 10, 12.8, 106, 65.8%” with UACC-62 melanoma (runs of 1993). In addition, the growth result in the assay on UACC-62 melanoma (runs of 1994) is “active: -62.7, -1.17, 3.06, -60.7, -60.5, -6.88, -27.8, -65, -35, 0.722, -91.1, -5.39, -85.7, 6.94, -21.7, -80.4, -66.6, -27.3, -14.5, -46.1, 8.66, -72.2, -25.6, 0.456, -12.7, -11.5, 6.4, -36.9, 4.63% and inactive: 24.1%, 13.8%, 20.5%”; in the assay on UACC-62 melanoma (runs of 1995), “inactive: 29.1, 16.8, 27.3, 24.8, 32, 10.7% and active: -55.8, -6.74, -15.8, -7.67, -39.5, 9.52, -21.8, 9.71, 9.15, 2.25, -50.3, -5.14, -60.2, -75.7, -24.4, -67 (2×), -30.4, -20.8, -77, -27.8, 2.84, -25.9, -63.2, 1.05, -52, -19, -13.5, 6.03, 1.55, -36.6, -43.7, -16.3, -50.9, -69.5, -72.1, -77.7, -18.6, -29.2, -55.3, -35, -75.3, -46.8, -33.2, -39, -23.9, -100%”; in the assay on UACC-62 melanoma (runs of 1996), “active: -33.7, -39.9, -42.9, -41.2, 4.38, -73.8, -26.5, -18.4, -32.1, -36.7, -36 (2×), -78.7, -100 (8×), -78.2, -87.7, -26.8, -31.8, -75.7, -38.6, -65.8, -58.3, -68.9 (2×), -99.3, -48.2, -58.7, -26 (2×), -46.9, -6.28, -14.6, -16.8, -42.7, -13.1, -25.1, -41.3, -2.88, -91.9, -85.5, -75.3, -38.7, -16.1, -50, -4.3, -3.31, -18.3, -38, -91.3, -90.6, -69.8, -81.4, -2.78, 4.92, -5.39, 7.1, -61.8, -70.9, -49.7, -39.5, -14.2, -39.3, -66, -29.1, -37.2, -7.08, -18.5, -20.7, -13, -10.4, -7.66, -24.1, -45.5, -27.7, -22.4, 0.236, -9.72, -23.8, -7.29, -54.4, -15.5 (2×), -46.4, -34, -47.1, -2.33, 0.876, -25.3, -39.4, -57.3, -8.02, -5.57, -22.2, -59.4, -50.4, -48.3% and inactive: 102, 117, 51.2, 43.3, 10.2 (2×), 12.9, 10.9, 25.5, 10.7, 88%”.
